From PubChem BioAssay AID686979 (National Center for Advancing Translational Sciences (NCATS), 2013)
In all, about 420,000 compounds went through this assay and about 50,000 (12%) were called active. The shares of active, inactive and inconclusive entries below differ from those in the screen. Calls come from the whole dose curve; as a rule, active = well fitted inhibition curve with a large enough effect; inconclusive = small, poorly fitted or top-dose-only effect; inactive = flat fitted curve, though single readings scatter. No potency is given beside an inconclusive call; the fits are too rough.

Assay: qHTS for Inhibitors of human tyrosyl-DNA phosphodiesterase 1 (TDP1): qHTS in cells in presence of CPT; note: nearly all actives have a fitted effect of over 55% in size
Conditions: chicken DT40 Tdp1-/-;hTDP1 cells + 20 nM CPT, ATP luminescence, 48 h; activity change, negative = growth inhibition: at 46.2 µM (top of the series) unless noted
In short: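 Cell growth measured by CellTiter-Glo luminescence after a minimum 48 h, 37 C compound exposure with 20 nM CPT in Tdp1-knockout DT40 cells stably expressing hTDP1, seeded 400/well; qHTS titration format.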
% is set by controls: 0 for no effect and ±100 for the full control effect; potency is the fitted concentration of half-maximal effect; tags give direction and shape of the fitted curve.

Compound | Potency | activity change, negative = growth inhibition
CCc1nc2c(OCc3cccc(OC)c3)cccn2c1N(C)C(=O)c1ccccc1F | inconclusive [inhibitor, single point] | 
COc1cc(/C=N/NC(=O)c2ccc(COc3ccccc3Cl)o2)cc(Br)c1O | inconclusive [inhibitor, single point] | 
CCOC(=O)c1sc(-c2ccc(C(F)(F)F)cc2)nc1O | inconclusive [inhibitor, single point] | 
CC(C)Cc1nn2c(=O)cc(COC(=O)c3ccc4c(c3)OCO4)nc2s1 | inconclusive [inhibitor, partial curve, poor fit] | 
COC(=O)c1ccc(Cn2cc(/C=C\[N+](=O)[O-])c3ccccc32)o1 | inconclusive [inhibitor, single point] | 
Nc1ncc(-c2ccccc2)c(-c2ccc(OCc3ccccc3)cc2O)n1 | inconclusive [inhibitor, single point] | 
CCN=C1SC(CC(=O)Nc2ccccc2)C(=O)N1CC (centres undefined) | inactive | 
CCOC(=O)N1CCC(N2CCN(Cc3ccc(C)o3)C(CCO)C2)CC1 (centres undefined) | inconclusive [inhibitor, single point] | 
CN(C)c1ccc(C(CNS(=O)(=O)c2ccc(Br)cc2)N2CCCC2)cc1 (centres undefined) | inconclusive [inhibitor, single point] | 
COc1ccccc1Oc1c(C)oc2c(CN3CCN(CCO)CC3)c(O)ccc2c1=O |  | inconclusive: -26.5% [inhibitor]
CCN(CC)S(=O)(=O)c1ccc(NC(=O)CCc2c(C)nc3cc(-c4ccc(Cl)cc4)nn3c2C)cc1 | active: 4.61 µM | 
COc1ccc(OCc2n[nH]c(=S)n2N)cc1 | active: 18.4 µM | 
O=C(NC1CCCCC1)c1ccc(CS(=O)(=O)Cc2ccccc2F)o1 | inconclusive [inhibitor, single point] | 
O=C(N/N=C/c1ccccc1O)C1SCCCS1 | active: 11.6 µM | 
CCc1c(N)nc(N)nc1Nc1ccc(C)c(C)c1 | inconclusive [inhibitor, single point] | 
Cc1ccc2[nH]c(=O)c(CN(Cc3ccco3)Cc3nnnn3Cc3ccccc3)cc2c1 | inconclusive [inhibitor, single point] | 
CCCCSc1nnc(-c2ccc(C)cc2)n1C | inconclusive [inhibitor, single point] | 
Cn1c(NCc2cccnc2)nc2cc(-c3ccc(C(=O)N4CCOCC4)cc3)sc2c1=O | inconclusive [inhibitor, single point] | 
CN1CCN(S(=O)(=O)c2ccc(Cl)cc2)CC1 | inactive | 
CC(=O)c1cc2c(ccc3ccccc32)oc1=O |  | inactive: 23.4%
Nc1ccc2cc3ccccc3cc2c1 | inconclusive [inhibitor, partial curve, poor fit] | 
O=[N+]([O-])c1cc([N+](=O)[O-])c(Oc2cncc(Cl)c2)cc1NC1CCCCCCC1 | active: 23.1 µM | 
COc1ccc(C(O)(C2CCCCC2)C(CN2CCOCC2)c2ccccc2)cc1 (centres undefined) | active: 25.9 µM | 

Compound | Potency | activity change, negative = growth inhibition
CC(C)(C)C(=O)N1CCC2CC1c1cc(-c3ccc4c(c3)OCO4)ccc12 (centres undefined) | inconclusive [inhibitor, single point] | 
COC(=O)c1ccc(C(=O)NCC2Cc3cc(F)cc(-c4cncnc4)c3O2)cc1 (centres undefined) | inconclusive [inhibitor, single point] | 
N#CC(C(=S)Nc1ccccc1)c1nc2ccccc2[nH]1 (centres undefined) | active: 5.17 µM | 
Cc1ccc2c(CN(C)Cc3ccccc3)cc(=O)oc2c1 | active: 18.4 µM | 
O=C(NCC1CCCO1)C(C(=O)c1ccccc1)n1ccccc1=O (centres undefined) | inconclusive [inhibitor, partial curve, poor fit] | 
Cn1c(CC(=O)Nc2ccc(Cl)c(Cl)c2)nnc1SCC(=O)N1CCN(c2ccccc2)CC1 | inconclusive [inhibitor, single point] | 
Cc1[nH][nH]c(=O)c1[C@@H](c1ccccc1[N+](=O)[O-])C(C#N)C#N | inconclusive [inhibitor, single point] | 
CCOc1ccc(C2CC(=O)n3nc(-c4ccc(C)cc4)nc3S2)cc1 (centres undefined) |  | inactive: -2.54%
CC(C)Oc1ccc(C(CC(=O)O)NC(=O)Cc2ccccc2)cc1 (centres undefined) |  | inactive: 9.4%
Cc1cccc2c1-c1sc(C(=O)Nc3nccs3)cc1CO2 | inconclusive [inhibitor, single point] | 
Cc1ccc(-n2c(C)cc(C(=O)Cn3nc(C(=O)O)c4ccccc4c3=O)c2C)cc1 | inconclusive [inhibitor, single point] | 
CC1CCCCN1CCNC(=O)c1cc2c(-c3ccccc3F)nn(C)c2s1 (centres undefined) | inconclusive [inhibitor, single point] | 
CCOc1cccc2c1OC1(C)CC2NC(=O)N1c1cccc(C(=O)N2CCN(c3ccccn3)CC2)c1 (centres undefined) |  | inactive: -22.8%
Cc1ccc(CNC(=O)C2CCCN(S(=O)(=O)N3CCC(C)CC3)C2)cc1 (centres undefined) |  | inconclusive: -30.9% [inhibitor]
COc1ccc(C(=O)N2CCC3(CCN(Cc4ccc(C#N)cc4)CC3)CC2)cc1 | inconclusive [inhibitor, partial curve, poor fit] | 
CCN(CC)CCCNC(=O)C1CCC(CNS(=O)(=O)c2c(C)cc(C)cc2C)CC1 (centres undefined) | inconclusive [inhibitor, partial curve, poor fit] | 
N#C/C(=C\Nc1ccc2cn[nH]c2c1)c1nc(-c2ccc(Cl)cc2)cs1 | inconclusive [inhibitor, single point] | 
CCN(CC)CCCCCC(=O)Nc1ccccc1C(=O)Nc1ccccc1 |  | inactive: 6.37%
CCCCCN(C(=O)CCC(=O)OCCOc1ccc(OCC)cc1)c1c(N)n(CCCC)c(=O)[nH]c1=O | inconclusive [inhibitor, single point] | 
CN1CC(=O)N(CC(=O)N2N=C(c3ccc(Cl)cc3)CC2c2ccco2)C1=O (centres undefined) | inconclusive [inhibitor, single point] | 
C=C(C)CN=CC1(C)CCC(C)=CO1 (centres undefined) | active: 16.4 µM | 
Nc1cc([N+](=O)[O-])ccc1O | inconclusive [inhibitor, partial curve, poor fit] | 
C/C(Cn1ncc(N2CCOCC2)c(Cl)c1=O)=N\O |  | inactive: -0.0494%

Compound | Potency | activity change, negative = growth inhibition
CCc1ccc(/C=C/C(=O)c2ccc(S(=O)(=O)N(C)C)cc2)cc1 | inconclusive [inhibitor, single point] | 
N#Cc1ccsc1NC(=O)c1ccc2ncsc2c1 | inconclusive [inhibitor, single point] | 
COc1ccccc1CNC(=O)Cc1csc2nc(-c3ccc(Cl)cc3)cn12 | inconclusive [inhibitor, single point] | 
COC(=O)C(CC(C)C)NC(=O)c1cccs1 (centres undefined) |  | inactive: -10.8%
OCCC#Cc1ccc(N2C(c3ccsc3)=Cc3ccc(F)cc3C2c2c[nH]c3ccccc23)cc1 (centres undefined) | inconclusive [inhibitor, single point] | 
CC(C)CNc1ncnc2oc(-c3ccco3)c(-c3ccco3)c12 | inconclusive [inhibitor, single point] | 
CCCCN1CC(C)(C)Oc2cccc(F)c2S1(=O)=O |  | inactive: -12.6%
CCOc1cc(CNC(=O)c2ccc(C)c(NC(=O)c3nsc4ccccc34)c2)ccc1OC | active: 7.31 µM | 
Cc1sc(NC(=O)c2ccco2)c(CN2CCN(c3ccc(F)cc3)CC2)c1C | active: 20.6 µM | 
Cc1ccc(S(=O)(=O)N(C)C)cc1NC(=O)c1cc(-c2ccncc2)nc2ccccc12 | inconclusive [inhibitor, partial curve, poor fit] | 
CCN(C(=O)COC(=O)c1nn(-c2ccccc2)c(=O)c2ccccc12)C1CCS(=O)(=O)C1 (centres undefined) |  | inactive: -10.6%
Cc1ccccc1Nc1nc(N)nc(CSc2nnnn2-c2ccccc2)n1 | inconclusive [inhibitor, single point] | 
CC(C)CSc1ncc(-c2cccc(C(F)(F)F)c2)cn1 |  | inactive: 4.18%
CC1CCCCC1NC(=O)c1ccc(NS(=O)(=O)c2ccc3[nH]c(=O)[nH]c3c2)cc1 (centres undefined) | inconclusive [inhibitor, single point] | 
COc1ccc(C(=O)Cn2c(=N)n(C)c3ccccc32)cc1 | inconclusive [inhibitor, partial curve] | 
Cc1noc(C)c1-c1ccc(C(=O)N2CCN(C)CC2)c2occc12 | inconclusive [inhibitor, partial curve, poor fit] | 
CCCc1cc(=O)[nH]c(SCC(=O)Nc2ccc([N+](=O)[O-])cc2C#N)n1 | inconclusive [inhibitor, single point] | 
CCOc1cc2sc(N3CCC(C(=O)Nc4ccc(C)cc4)CC3)nc2cc1Br |  | inactive: -16.1%
O=C1NCC(c2ccccc2)(c2ccccc2)C(=O)N1 |  | inactive: 8.39%
O=C(Nc1ccccc1N1CCOCC1)c1cc(F)cc(F)c1 | inconclusive [inhibitor, single point] | 
O=C(NNc1ccc([N+](=O)[O-])cc1[N+](=O)[O-])c1ccco1 | active: 14.6 µM | 
CCCOc1ccc(NC(=O)CC2C(=O)N(C)C(=S)N2Cc2cccs2)cc1 (centres undefined) | inconclusive [inhibitor, single point] | 
O=C(NCCCN1CCOCC1)c1ccc2c(c1)N(Cc1ccccc1)C(=O)c1ccccc1S2=O (centres undefined) | inconclusive [inhibitor, single point] | 
